Data published in PubChem BioAssay AID588855 (National Center for Advancing Translational Sciences (NCATS), 2011).
The whole screen tested about 410,000 compounds, of which about 5,000 (1.2%) were called active. This list was built around the results that the source calls inconclusive (neither active nor inactive); the mix of calls is not that of the screen. Calls come from the whole dose curve; as a rule, active = well fitted inhibition curve with a large enough effect; inconclusive = small, poorly fitted or top-dose-only effect; inactive = no such curve, though single readings can be large or run the other way. Potencies beside an inconclusive call are fits to weak or partial responses and may not hold up.

Assay: qHTS for Inhibitors of TGF-b; note: nearly all actives have a fitted effect of over 65% in size
Conditions: HepG2 CAGA-GFP TGF-b/SMAD3 reporter, GFP fluorescence, 18 h, TGF-beta stimulated, 500 pg/mL final; series mostly up to 46.1 µM; activity, negative = inhibition: at the top concentration
Summary of the method: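 Inhibition was scored as loss of TGF-beta-induced (500 pg/mL final, 18 hours, 37 degrees C) GFP in HEPG2 cells carrying a CAGA-GFP reporter, in DMEM with 1% FBS. Well GFP was summed per cell; Activity was normalised to unstimulated and stimulated DMSO wells, then concentration-response fitting.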
% is set by controls: 0 for no effect and ±100 for the full control effect; potency is the fitted concentration of half-maximal effect; tags give direction and shape of the fitted curve.

Row | Compound | activity, negative = inhibition | Potency
1 | COc1cc(NC(=O)CSc2ncc(S(=O)(=O)c3ccc(Br)cc3)c(=O)[nH]2)cc(OC)c1 | inactive: -3.61% | 
2 | Fc1ccc(C2CCNCC2COc2ccc3c(c2)OCO3)cc1 (configuration not stated) |  | inconclusive: 25.1 µM [inhibitor, single point]
3 | Cn1c2ccccc2c2c(C(=O)NCCCN3CCCC3=O)cn(C3CCCCC3)c(=O)c21 | inactive: -27.6% | 
4 | O=C(c1ccco1)N(Cc1cccnc1)C(c1ccccc1)c1nc2ccccc2[nH]1 (configuration not stated) |  | inconclusive: 25.1 µM [inhibitor, partial curve, poor fit]
5 | CCOC(=O)N/N=C/c1cn(Cc2ccccc2Cl)c2ccccc12 |  | inconclusive: 28.2 µM [inhibitor, single point]
6 | O=C(Nc1cccc(-c2cccc(F)c2)c1)C1CCN(C2CCC2)CC1 |  | inconclusive: 5.62 µM [inhibitor, single point]
7 | Cc1cc(=O)oc2cc(NC(=O)C(C)Oc3ccc(F)cc3)ccc12 (configuration not stated) |  | inconclusive: 2.82 µM [inhibitor, single point]
8 | CNc1ccc(Br)cc(C(=O)/C=C/c2ccc(Cl)cc2Cl)c1=O |  | inconclusive: 10 µM [inhibitor, partial curve, poor fit]
9 | O=C1NC(Cc2ccc(O)cc2)c2nc3cc(F)ccc3c(=O)n2-c2cc3ccccc3cc21 (configuration not stated) |  | active: 20 µM
10 | O=C(CN1CCN(C(c2ccccc2)c2ccccc2)CC1)N1CCN(c2ccccc2)CC1 |  | inconclusive: 15.8 µM [inhibitor, single point]
11 | CCCOc1ccc(NC(=O)CC2C(=O)N(C)C(=S)N2Cc2ccc3c(c2)OCO3)cc1 (configuration not stated) |  | inconclusive: 35.5 µM [inhibitor, partial curve, poor fit]
12 | COc1cc(OC)c(C(=O)OC(C)C(=O)Nc2cccc(C(F)(F)F)c2)cc1OC (configuration not stated) |  | inconclusive: 14.1 µM [inhibitor, single point]
13 | CC(O)C(NS(=O)(=O)c1ccc(Cl)cc1)C(=O)OCC(=O)c1c[nH]c2ccccc12 (configuration not stated) |  | inconclusive: 11.2 µM [inhibitor, partial curve, poor fit]
14 | Cc1cccc(NC(=O)c2ccc(S(=O)(=O)NCc3cccnc3)cc2)c1 |  | inconclusive: 0.562 µM [inhibitor, full curve, poor fit]
15 | CCC(=O)N(CCC(c1ccco1)C(C)C)Cc1ccccc1 (configuration not stated) | inactive: -23.9% | 
16 | CCOC(=O)c1cc(-c2ccccc2)n(CC(=O)Nc2cc(OC)cc(OC)c2)c1C |  | inconclusive: 3.55 µM [inhibitor, partial curve, poor fit]
17 | COc1cc(-c2coc3c(C(=O)NCc4cccc(Cl)c4)cccc23)ccc1O |  | inconclusive: 35.5 µM [inhibitor, single point]
